From the antibiotic and cytotoxicity screens of Wong et al. (2023) come the findings set out here.

Molecules are shown by their SMILES. The list shows a part of the results.

The test system of assay [1] is HSkMC (human skeletal muscle cells). The assay can be described thus: cytotoxicity call (relative viability < 0.9). The conditions noted are these: 10 µM.
The subject of assay [2] is HepG2. Nature of the assay: cytotoxicity call (relative viability < 0.9). The conditions noted are these: 10 µM.
The subject of assay [3] is S. aureus RN4220. The assay can be described thus: growth inhibition call (relative growth <= 0.2). The conditions noted are these: 50 µM.

Regarding `C[C@H](CO)N1C[C@H](C)[C@H](CN(C)S(=O)(=O)c2ccccc2)Oc2ncc(Br)cc2C1=O`, the cytotoxicity call in assay [1] and in assay [2] was “inactive” throughout. In addition, the growth inhibition call in assay [3] is “inactive”.
For the compound `N#Cc1ccccc1C#CCO`, the cytotoxicity call in assay [1] and in assay [2] was “inactive” each time. Further, the growth inhibition call in assay [3] is “inactive”.
For `COc1ccc(S(=O)(=O)Nc2ccc3c(c2)C(=O)N([C@H](C)CO)C[C@H](C)[C@H](CN(C)C(=O)NC2CCCCC2)OCCCC[C@H](C)O3)cc1`, the cytotoxicity call in assay [1] and in assay [2] was “inactive” throughout. Also, in assay [3], the growth inhibition call was “inactive”.
`Cc1ccc(S(=O)(=O)Nc2ccc3c(c2)C(=O)N([C@H](C)CO)C[C@@H](C)[C@H](CN(C)S(=O)(=O)c2ccc(F)cc2)OCCCC[C@H](C)O3)cc1`: the cytotoxicity call in assay [1] and in assay [2] was “inactive” throughout. Besides, the growth inhibition call in assay [3] was “inactive”.
For the compound `COc1cccc(NC(=O)N(C)C[C@H]2Oc3ncc(C#Cc4cccnc4)cc3C(=O)N([C@H](C)CO)C[C@@H]2C)c1`, the cytotoxicity call in assay [1] and in assay [2] was “inactive” throughout. The growth inhibition call in assay [3] was “inactive”.
`CC(C)CC#Cc1ccc2c(c1)O[C@@H](CN(C)C(=O)C1CCOCC1)[C@@H](C)CN([C@H](C)CO)S2(=O)=O`: the cytotoxicity call in assay [1] and in assay [2] was “inactive” throughout. The growth inhibition call in assay [3] is “inactive”.
Turning to `C[C@@H]1CN([C@@H](C)CO)C(=O)c2cc(-c3ccc(F)cc3)cnc2O[C@@H]1CN(C)C(=O)Cc1ccccn1`, the cytotoxicity call in assay [1] and in assay [2] was “inactive” each time. For the same compound, the growth inhibition call in assay [3] was “inactive”.
In the case of `CC(=O)OC1CC2C(C)(C)C(=O)C3OC3C2(C)C2CCC3(C)C(c4ccoc4)OC(=O)C4OC43C12C` (centres undefined), the cytotoxicity call in assay [1] and in assay [2] was “inactive” in each case. For the same compound, the growth inhibition call in assay [3] was “inactive”.
`O=C(C[C@@H]1C[C@@H]2c3cc(NS(=O)(=O)c4ccc(F)cc4)ccc3O[C@@H]2[C@H](CO)O1)N1CCCCC1`: the cytotoxicity call in assay [1] and in assay [2] was “inactive” each time. In addition, the growth inhibition call in assay [3] was “inactive”.
Turning to `Cc1ccc(S(=O)(=O)N(C)C[C@@H]2Oc3ccc(NC(=O)c4ccncc4)cc3C(=O)N([C@@H](C)CO)C[C@@H]2C)cc1`, the cytotoxicity call in assay [1] and in assay [2] was “inactive” throughout. In addition, the growth inhibition call in assay [3] is “inactive”.
`C[C@H](CO)N1C[C@H](C)[C@H](CN(C)S(=O)(=O)c2ccc(Cl)cc2)Oc2ccc(NS(C)(=O)=O)cc2C1=O`: the cytotoxicity call in assay [1] and in assay [2] was “inactive” throughout. For the same compound, the growth inhibition call in assay [3] was “inactive”.
In the case of `C[C@@H]1CN([C@H](C)CO)C(=O)c2cc(C#CC3CCCCC3)cnc2O[C@@H]1CN(C)C(=O)c1ccncc1`, the cytotoxicity call in assay [1] and in assay [2] was “inactive” each time. Further, in assay [3], the growth inhibition call is “inactive”.
In the case of `O=C(O)[C@@H]1CCCCO1`, the cytotoxicity call in assay [1] and in assay [2] was “inactive” each time. In addition, in assay [3], the growth inhibition call was “inactive”.
On to `CC(C)NC(=O)N(C)C[C@H]1Oc2c(NC(=O)C3CCOCC3)cccc2C(=O)N([C@@H](C)CO)C[C@H]1C`, for which the cytotoxicity call in assay [1] and in assay [2] was “inactive” each time. In assay [3], the growth inhibition call is “inactive”.
Turning to `C[C@H](CO)N1C[C@H](C)[C@H](CN(C)S(=O)(=O)c2ccc(Cl)cc2)OCCCC[C@H](C)Oc2ccc(NC(=O)Cc3ccccc3)cc2C1=O`, the cytotoxicity call in assay [1] and in assay [2] was “inactive” each time. Moreover, the growth inhibition call in assay [3] is “inactive”.
With `O=C(C[C@@H]1C[C@H]2c3cc(NS(=O)(=O)c4ccc(F)cc4)ccc3O[C@H]2[C@@H](CO)O1)NC1CCCCC1`, the cytotoxicity call in assay [1] and in assay [2] was “inactive” throughout. Further, the growth inhibition call in assay [3] was “inactive”.
As for `C[C@@H]1CN([C@H](C)CO)C(=O)Cc2cc(NS(=O)(=O)c3cccs3)ccc2O[C@H]1CN(C)S(=O)(=O)c1ccc(F)cc1`, the cytotoxicity call in assay [1] and in assay [2] was “inactive” in each case. Further, the growth inhibition call in assay [3] was “inactive”.
For `COc1ccc(NC(=O)N(C)C[C@@H]2Oc3ncc(C#C[C@@H](C)O)cc3C(=O)N([C@@H](C)CO)C[C@H]2C)cc1`, the cytotoxicity call in assay [1] and in assay [2] was “inactive” throughout. Besides, the growth inhibition call in assay [3] is “inactive”.
`C[C@@H]1CN([C@@H](C)CO)C(=O)c2cccc(NC(=O)Nc3ccc(F)cc3)c2O[C@H]1CN(C)S(C)(=O)=O`: the cytotoxicity call in assay [1] and in assay [2] was “inactive” throughout. Also, in assay [3], the growth inhibition call is “inactive”.
In the case of `COc1ccc([C@H]2C/C=C\C[C@@H](c3cccc(Cl)c3)NC(=O)[C@H](c3ccccc3)CC(=O)N2)c(OC)c1`, the cytotoxicity call in assay [1] and in assay [2] was “inactive” throughout. The growth inhibition call in assay [3] was “inactive”.
Consider `C[C@@H]1CCCCO[C@H](CN(C)C(=O)Nc2ccc(C(F)(F)F)cc2)[C@H](C)CN([C@@H](C)CO)C(=O)c2cc(NC(=O)c3ccncc3)ccc2O1`, for which the cytotoxicity call in assay [1] and in assay [2] was “inactive” each time. The growth inhibition call in assay [3] is “inactive”.
For the compound `C[C@H]1CN([C@@H](C)CO)S(=O)(=O)c2ccc(-c3ccccc3F)cc2O[C@@H]1CN(C)S(C)(=O)=O`, the cytotoxicity call in assay [1] and in assay [2] was “inactive” each time. The growth inhibition call in assay [3] is “inactive”.
On to `O=C(NCc1ccc(Oc2ccccc2)cc1)c1nc(-c2cc(Br)c(O)c(Br)c2)no1`, for which the cytotoxicity call in assay [1] and in assay [2] was “inactive” each time. In addition, in assay [3], the growth inhibition call was “active”.
With `CC(C)C[C@@H](NS(=O)(=O)c1ccc2[nH]c(=O)c(=O)[nH]c2c1)C(=O)O`, the cytotoxicity call in assay [1] and in assay [2] was “inactive” throughout. Also, the growth inhibition call in assay [3] is “inactive”.
`COc1ccc(NC(=O)Nc2ccc3c(c2)C(=O)N([C@H](C)CO)C[C@H](C)[C@@H](CN(C)C(=O)NC2CCCCC2)OCCCC[C@H](C)O3)cc1`: the cytotoxicity call in assay [1] and in assay [2] was “inactive” each time. Also, the growth inhibition call in assay [3] was “inactive”.
Take `Cc1noc(C)c1NC(=O)Nc1ccc2c(c1)C(=O)N([C@H](C)CO)C[C@@H](C)[C@H](CN(C)C(=O)NC1CCCCC1)OCCCC[C@@H](C)O2`: the cytotoxicity call in assay [1] and in assay [2] was “inactive” throughout. Also, the growth inhibition call in assay [3] is “inactive”.
With `C[C@H](CO)N1C[C@H](C)[C@@H](CN(C)C(=O)NC2CCCCC2)Oc2ccc(NC(=O)CCN3CCOCC3)cc2C1=O`, the cytotoxicity call in assay [1] and in assay [2] was “inactive” each time. In assay [3], the growth inhibition call is “inactive”.
With `CCc1nc2[nH]c(C)cc(=O)n2n1`, the cytotoxicity call in assay [1] and in assay [2] was “inactive” in each case. Moreover, the growth inhibition call in assay [3] was “inactive”.
